Results reported in PubChem BioAssay AID1508623 (National Center for Advancing Translational Sciences (NCATS), 2021).
Hit rate of the full screen: of about 48,000 compounds, about 450 (0.94%) were called active. Roughly 19% stayed inconclusive and do not appear here. The call rests on the fitted dose curve; in most records, active means well fitted inhibition curve with a large enough effect; inconclusive means small, poorly fitted or top-dose-only effect; inactive means no such curve, though single readings can be large or run the other way. The list shows a part of the results.

assay: Primary qHTS for Identification of Small Molecule Inhibitors of Huntingtin Promoter Activity; details: HEK293 HTT promoter firefly luciferase reporter (activity 0% = vehicle and -100% = no light), 24 h; series mostly up to 57.5 µM; activity change, negative = inhibition: at the top concentration; further: nearly all actives have a fitted effect of over 50% in size
Method in brief: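 HEK293 Fluc reporter, 2,500 cells/well, 24 h pre-culture; cpds up to 57.5 uM final, 24 h 37 degrees C; Dual-Glo, 10 min RT; normalized vehicle = 0%, zero RLU = -100%.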
Potency means the concentration at half of the fitted maximal effect.

Structure (SMILES)	activity change, negative = inhibition	Potency
COc1cc(OC)c(NC(=O)c2ccc3c(c2)N(Cc2ccc(C)cc2)CCS3)cc1Cl	inactive: -13.6%	–
Cc1cccc(C2N=C(N)Nc3nc4ccccc4n32)c1 (stereo not drawn)	inactive: -20.1%	–
COc1ccc(CCCc2nnc(SCC(=O)Nc3ccc(C)cc3)o2)cc1C	inactive: -17.6%	–
Cc1ccc(-n2ncc(C(=O)NC3CCN(Cc4ccccc4)CC3)c2C2CCN(C(=O)OC(C)(C)C)CC2)cc1C	inactive: -21.6%	–
CCCS(=O)(=O)Nc1cc(-c2cn3ccc(C)cc3n2)ccc1C	inactive: 49.4%	–
CCOc1ccccc1NC(=O)Cn1c(=O)n(Cc2cccs2)c(=O)c2cccnc21	inactive: -10.1%	–
Fc1ccc(-c2nn(-c3ccc(Cl)cc3)c3c2cnc2ccc(F)cc23)cc1	inactive: 1.29%	–
COc1ccc(-n2c(=O)c3ccccc3n(Cc3ccccc3Cl)c2=O)cc1	inactive: -13.4%	–
CC(Sc1nc(=O)cc(N)n1CCc1ccccc1)C(=O)Nc1cccc(Cl)c1 (stereo not drawn)	inactive: 21.1%	–
COc1ccc(C(=O)Nc2nc3n(n2)C(c2ccc(Cl)cc2)C=C(c2ccccc2)N3)cc1OC (stereo not drawn)	inactive: -8.03%	–
Cc1ccc(C)c(CN2C(=O)c3ccccc3S(=O)c3ccc(C(=O)N4CCOCC4)cc32)c1 (stereo not drawn)	inactive: -23.9%	–
Cc1ccc(S(=O)(=O)c2nnn3c2nc(N2CCOCC2)c2sccc23)cc1C	inactive: -8.94%	–
COc1ccccc1N1CCN(S(=O)(=O)c2c(C)sc3ncn(CC(=O)Nc4ccc(C)cc4Br)c(=O)c23)CC1	inactive: -11%	–
Cc1ccc(CNC(=O)C2CCCN(c3ncnc4onc(-c5ccc(F)cc5)c34)C2)cc1 (stereo not drawn)	inactive: -12.5%	–
CN1CC(=O)Nc2cc(C(=O)O)ccc21	inactive: -10.9%	–
COc1ccc(OC)c(NC(=O)Cn2c(=O)cc(C)c3c(C)nn(-c4cccc(Cl)c4C)c32)c1	inactive: -19.6%	–
CCOc1ccccc1C(=O)Nc1ccc(S(=O)(=O)N(Cc2ccccc2)c2ccccc2)cc1	inactive: -11.3%	–
CCOC(=O)c1ccccc1NC(=O)Cn1ccn2nc(-c3ccc(OCC)cc3)cc2c1=O	inactive: -10.9%	–
Cc1ccccc1-c1noc(-c2nnn(-c3ccccc3C)c2N)n1	inactive: 78.5%	–
Cc1ccc(-n2cc(C(=O)OCc3ccc(F)c(F)c3)c3ccccc3c2=O)cc1	inactive: -16.7%	–
CCCN1Cc2cccc(C(=O)Nc3ccccc3C(=O)OC)c2C1=O	inactive: -23.9%	–
CCOc1ccc(NC(=O)CN2CCN(CC(=O)Nc3ccc(F)cc3F)CC2)cc1	inactive: -5.81%	–
COc1cc(C(=O)N2CCN(C(=O)COc3cccc(C)c3)CC2)cc(OC)c1OC	inactive: 2.29%	–
COc1ccc(N2CCN(C(=O)c3cnn(-c4ccc(OC)cc4)c3C3CCN(C(=O)OC(C)(C)C)CC3)CC2)cc1	inactive: -0.553%	–

Structure (SMILES)	activity change, negative = inhibition	Potency
Cc1cccc(C(=O)N(Cc2ccccc2F)C2CCS(=O)(=O)C2)c1 (stereo not drawn)	inactive: 2.59%	–
COc1ccc(Cc2nc3c4cnn(-c5cccc(F)c5)c4ncn3n2)cc1	inactive: -16.2%	–
COC(=O)c1c(NC(=O)COc2cccc(C(F)(F)F)c2)sc2c1CCCC2	inactive: -5.28% [at 11.5 µM]	–
CCCNC(=O)N1CCCN(S(=O)(=O)c2ccc3c(ccn3CC)c2)CC1	inactive: -31.8%	–
Cc1c(Cl)cccc1-c1ccc(/C=C(\C#N)c2nc3ccccc3[nH]2)o1	inactive: -16.6%	–
CCCCOc1cccc(C(=O)N2CCN(CCc3ccncc3)CC2)c1	inactive: -15%	–
CCOC(=O)c1c(NC(=O)c2ccc(S(=O)(=O)N(CC)CC)cc2)sc2c1CCCCC2	inactive: -5.47%	–
CCc1ccc(CN(Cc2cn[nH]c2-c2ccc(OC)cc2)C(=O)Nc2ccc(Br)cc2)cc1	–	active: 14.1 µM
CN(C)c1ccc(C(CNS(=O)(=O)c2ccc(F)cc2F)N2CCOCC2)cc1 (stereo not drawn)	inactive: -13%	–
Cc1ccc(CCNC(=O)CN(c2ccc(C(C)C)cc2)S(=O)(=O)c2c(C)nn(C)c2C)cc1	inactive: 10.9%	–
CCOc1ccc(Cc2cc([C@@H]3O[C@H](CO)[C@@H](O)[C@H](O)[C@@H]3O)ccc2Cl)cc1	inactive: -2.72%	–
CCN(CC)C(=O)CSc1nc2cc3c(cc2c(=O)n1CCCC(=O)NCc1ccc(OC)cc1)OCO3	inactive: -17.4%	–
O=C(NCCC1=CCCCC1)c1ccc2c(c1)N(Cc1ccccc1)C(=O)c1ccccc1S2=O (stereo not drawn)	inactive: -29.8%	–
CCn1c(SCC(=O)Nc2c(C)cccc2C)nnc1-c1nonc1NC(C)=O	inactive: -19.3%	–
Cc1ccc(C(=O)N2CCCCC2CCN2CCCCC2)cc1 (stereo not drawn)	inactive: -0.494%	–
Cc1ccc(O)cc1	inactive: -2.31%	–
Cc1cccc(NC(=O)Cn2c(=O)c3cccn3c3ccccc32)c1C	inactive: -11.7%	–
COc1cc2c(cc1-c1c(C)noc1C)ncc1[nH]c(=O)n([C@H](C)c3ccccn3)c12	inactive: -32.9%	–
COc1ccc(-c2csc(-c3c(N)c(C(=O)c4ccccc4)n4ccccc34)n2)cc1OC	inactive: -8.91%	–
COc1ccccc1N1CCN(C(=O)CSc2nc3ccccc3nc2Cc2ccc(C)cc2)CC1	inactive: -0.144%	–
COc1cc(NS(=O)(=O)c2cc(Br)cc3c2N(C(=O)C2CC2)CC3)cc(OC)c1	–	active: 15.8 µM
CN(C)c1nc(N(C)C)nc(N(C)C)n1	inactive: 13.5%	–
CCN(CCCNC(=O)c1nn(-c2ccc(OC)c(Cl)c2)c(=O)c2c1c1ccccc1n2C)c1ccccc1	inactive: -10.2%	–
Cc1ccc(CN2CCN(C3CCN(S(=O)(=O)N(C)C)CC3)C(=O)C2=O)cc1	inactive: -10.9%	–

Structure (SMILES)	activity change, negative = inhibition	Potency
CC1CCN(C(=O)Cn2c(SCC(=O)Nc3ccc(F)cc3)nc3ccccc32)CC1	inactive: -30.2%	–
COc1ccc(OC)c(CNC(=O)CSc2c3c(nc4cc(Cl)ccc24)CCCC3)c1	inactive: -11.5%	–
CCN(Cc1ccccc1)C(=O)Cn1c(=O)n(-c2cccc(C)c2)c(=O)c2c1c1cc(OC)ccc1n2C	inactive: -11.9%	–
CCOC(=O)C1=C(CN2CCN(C)CC2)NC(=O)NC1c1ccc(F)cc1 (stereo not drawn)	inactive: -2.43%	–
COc1ccc(N2C(N)=C(C#N)C(c3cc(CN4CCOCC4)cs3)C3=C2CCCC3=O)cc1 (stereo not drawn)	inactive: -6.14%	–
Cc1nc2c(C(=O)NCCc3ccc(Cl)cc3)cnn2c(C)c1Cc1ccc(F)cc1	inactive: -28.6%	–
CC(C)NC(=O)C1CCN(C(=O)c2cnn(-c3ccccc3)c2-n2cccc2)CC1	inactive: -12.6%	–
COc1ccc(NS(=O)(=O)c2ccc(-n3cccn3)cc2)cc1OC	–	active: 7.94 µM
CCCSc1nc2sc3c(c2c(=O)n1-c1ccc(C)c(Cl)c1)CCN(C(C)=O)C3	inactive: -31.4%	–
CN(C(=O)c1cc2nc(-c3ccc4c(c3)OCO4)cc(C(F)(F)F)n2n1)c1ccc(OC(F)(F)F)cc1	inactive: 6.37%	–
Cn1nc(C(=O)NCCc2ccc(Cl)cc2)c2c1-c1ccccc1SC2	inactive: -11.4%	–
CSc1nnc2n(-c3cccc(C)c3)c(=O)c3c4c(sc3n12)CCCC4	inactive: -3.82%	–
COc1ccc(S(=O)(=O)c2c(O)c(C)cc(NC(=O)c3ccccc3)c2C(C)C)cc1	inactive: -15.5%	–
COc1ccccc1N1CCN(C(=O)c2ccc(Nc3nc4ccccc4n4nnnc34)cc2)CC1	inactive: -24.7%	–
CCn1c(=O)n(CC)c2cc(N3CCCC3)c(NC(=O)Nc3cc(C)cc(C)c3)cc21	inactive: -16.4%	–
Cc1cccc(-c2nnc(SCC(=O)N3CCCCC3)o2)c1	inactive: 71.3%	–
Cc1cccn2c(=O)cc(COc3cccc(NC(=O)c4cccc(Cl)c4)c3)nc12	inactive: -0.925%	–
O=C(Nc1ccccc1F)c1oc2ccccc2c1NC(=O)c1c(F)cccc1F	inactive: -19.3%	–
Cc1c(C(=O)Nc2cccc(-c3nc4ccccc4s3)c2)oc2ccc(F)cc12	inactive: 6.19%	–
COc1cc(-c2nc(C(N)=O)c3c(n2)n(-c2cccc(C)c2)c(=O)n3C)cc(OC)c1OC	inactive: -8.55%	–
CCn1c(CN2CCCCC2)nc2cc(NC(=O)c3cccc([N+](=O)[O-])c3)ccc21	inactive: -7.43%	–
Cc1ccc(CNC(=O)c2nn(C)c3c2CSc2ccc(C)cc2-3)cc1	inactive: -28.8%	–
COC(=O)c1ccccc1NC(=O)c1ccc(=O)n(Cc2cccc(C)c2)c1	inactive: -21.5%	–
Cc1ccc(CCNC(=O)CSCc2nc(-c3ccc(C)cc3)oc2C)cc1	inactive: -28.4%	–

Structure (SMILES)	activity change, negative = inhibition	Potency
CC(C)c1ccc(NC(=O)Cn2c3ncccc3c(=O)n2-c2ccccc2)cc1	inactive: -14.3%	–
CC(C)c1ccc(N2C(=O)CSC23C(=O)N(Cc2ccccc2)c2ccccc23)cc1 (stereo not drawn)	inactive: -16.3%	–
Cc1cc(NS(=O)(=O)c2ccc3oc(=O)c4ncn(C)c4c3c2)ccc1Br	inactive: -11.4%	–
Cc1ccc(NC(=O)Cn2c(=O)n(Cc3nc(C)no3)c(=O)c3cc4c(cc32)OCO4)cc1	inactive: -18.5%	–
O=C(/C=C/c1ccccc1Cl)Nc1nc(-c2cccs2)ns1	inactive: 33.3%	–
COc1ccc(NC(=O)N2CCN(S(=O)(=O)c3ccc4c(ccn4C)c3)CC2)c(OC)c1	inactive: -27.6%	–
COc1cccc(CNC(=O)C(C)n2c(=O)cc(-c3ccccc3)c3c(C)nn(C)c32)c1 (stereo not drawn)	inactive: 0%	–
O=C(Cn1cc(SCc2c(F)cccc2Cl)c2ccccc21)N1CCCC1	inactive: 9.94%	–
CCCC(CCC)C(=O)NC1CC(=O)N(c2ccc3c(c2)OCCO3)C1 (stereo not drawn)	inactive: -17.2%	–
Cc1ccc(/C=C(\C#N)c2nc3ccccc3c(=O)[nH]2)cc1	inactive: 5.22%	–
COCCOC(=O)c1c(-c2ccccc2)c(-c2ccccc2)nn(C)c1=O	inactive: -5.16%	–
CCOc1ccc(CC(=O)Nc2c(C(=O)c3ccccc3)oc3ccc(OC)cc23)cc1OCC	inactive: -6.57%	–
CCc1ccccc1NC(=O)Cn1c(=O)n(Cc2ccc(OC)cc2)c(=O)c2oc3ccccc3c21	inactive: 6.71%	–
CCOc1ccc(CC(=O)NCC(c2cccs2)S(=O)(=O)c2ccc(F)c(C)c2)cc1 (stereo not drawn)	inactive: -7.42%	–
O=C(COc1ccc(Cl)cc1)Nc1ccccc1OCc1cc(=O)n2ccccc2n1	inactive: -2.38%	–
Cc1ccc(NC(=O)C2CC(=O)N(c3ccc(OC(C)C)cc3)C2)cc1 (stereo not drawn)	inactive: 1.12%	–
CCOC(=O)c1c(C)c(-c2ccccc2)n(CC(=O)NC(CC)Cc2ccccc2)c1C (stereo not drawn)	inactive: -5.68%	–
CCN(CC)c1ccc(NC(=O)C2CCN(S(=O)(=O)c3cnc[nH]3)CC2)c(C)c1	inactive: -14.4%	–
COc1ccccc1N1CCN(C(=O)c2cnn(-c3ccc(F)cc3F)c2C2CCNCC2)CC1	inactive: -15.8%	–
COc1cccc(C(=O)Nc2ccc3oc(-c4cccc5c(Br)cccc45)nc3c2)c1	inactive: 2.21%	–
Cc1ccc(Nc2nnc(-c3ccc(C)c(S(N)(=O)=O)c3)c3ccccc23)cc1	inactive: -33.4%	–
